The text below walks through data of ChEMBL document CHEMBL4888484, “Replenishing the malaria drug discovery pipeline: Screening and hit evaluation of the MMV Hit Generation Library 1 (HGL1) against asexual blood stage Plasmodium falciparum ,using a nano luciferase reporter read-out” (2022).

In all, about 150,000 compounds went through this assay and about 540 (0.36%) showed an effect of 50% or more. Some of the results follow.

This assay concerns Plasmodium falciparum. Briefly: Primary screen in NF54 nanoGlo assay, in single point, at 2uM, 72h; a lower Z score goes with more inhibition. The format is functional, Erythrocyte. To be noted: timepoint 72 hour.
Take `O=C(CCn1ccnc1)N1CCC[C@H](CCc2ccccc2C(F)(F)F)C1`: the “% Inhibition” value is reported as -5% and the Z score worked out at 1.03.

Regarding `CC1(Cn2cc(-c3nc(-c4ccncc4)no3)nn2)COC1`, the “% Inhibition” value was -4% and the Z score was 0.77.

As for `Cn1nccc1C(=O)NC[C@H]1CCCN(c2cnsn2)C1`, the “% Inhibition” value is -3% and the Z score is 0.53.

Turning to `Cc1cc(C)cc(C(=O)N2CCC[C@H]2c2nc(-c3ccccc3)no2)c1`, the “% Inhibition” value was -10% and the Z score worked out at 1.12.

As for `O=C(NCc1ncc[nH]1)C1(c2cccc(Cl)c2)CCCCC1`, the “% Inhibition” value is on record as -3% and the Z score was found to be 0.35.

Consider `COc1ccc(OCC(=O)Nc2cc(C)nn2-c2nc3c(cnn3-c3ccc(C)c(C)c3)c(=O)[nH]2)cc1`, for which the “% Inhibition” value is given as 8% and the Z score was -1.17.

With `COCc1nc(CN(CCO)C(C)C)cs1`, the “% Inhibition” value is -13% and the Z score was 1.15.

As to `Cc1noc(C2(NC(=O)Nc3ccc(F)c(C(=O)N(C)C)c3)CCOCC2)n1`, the “% Inhibition” value is given as -3% and the Z score came to 0.58.

With `c1cc(CCn2ccc(NC3CCCCCC3)n2)ccn1`, the “% Inhibition” value is listed as -3% and the Z score is on record as 0.6.

Take `O=S(=O)(NCCOc1ncccc1Cl)c1cccs1`: the “% Inhibition” value is on record as -4% and the Z score worked out at 0.69.

On to `CCC(C)CN(CC(=O)N1CCc2sccc2C1COc1ccc(C)cc1)C(=O)c1ccc2c(c1)OCO2` (stereo not drawn), for which the “% Inhibition” value is -13% and the Z score was determined as 1.68.

`Cc1cc(N(C)Cc2ccccc2)c2cccc(C(=O)O)c2n1`: the “% Inhibition” value is -31% and the Z score was 3.65.

Regarding `NC(=O)Cc1ccccc1OCCC1CCCC1`, the “% Inhibition” value was -7% and the Z score was 0.93.

As to `CN1CCN(c2nccs2)C[C@@]12CCC(=O)N(CC1CC1)CC2`, the “% Inhibition” value came to 10% and the Z score is recorded as -1.45.

Consider `O=C(CCn1cc(Cl)cn1)NC[C@@H]1COc2ccccc2C1`, for which the “% Inhibition” value is given as -3% and the Z score is given as 0.36.

Consider `Cn1c(-c2cc3n(n2)CCN(Cc2cnn4cccnc24)C3)nc2ccccc21`, for which the “% Inhibition” value is on record as -5% and the Z score is on record as 0.93.

Consider `Cc1cc(C)c2c(c1)OCC[C@@H]2NC1CCN(C)CC1`, for which the “% Inhibition” value is on record as -3% and the Z score stood at 0.3.

As for `C=CCNC(=O)Nc1cc(Br)ccc1Br`, the “% Inhibition” value is -2% and the Z score amounted to 0.4.

Turning to `CN1CCN(C(=O)c2ccnc(C3CCCC3)n2)CC1(C)C`, the “% Inhibition” value is 2% and the Z score is -0.49.

Take `CCN(C(=O)c1cccc(C)n1)[C@H]1COC[C@@H]1O`: the “% Inhibition” value is -3% and the Z score is on record as 0.55.

Regarding `O[C@@H](CNCc1ccc(Br)c2cccnc12)c1ccco1`, the “% Inhibition” value came out at 14% and the Z score is recorded as -1.38.

As for `CCn1c(CO)nnc1[C@H]1C[C@H](NC(=O)CCc2c(C)noc2C)C1`, the “% Inhibition” value was determined as 10% and the Z score is reported as -1.14.

In the case of `C[C@](O)(CNCc1ccsc1S(N)(=O)=O)c1ccccc1`, the “% Inhibition” value is listed as -16% and the Z score is 2.44.

As for `Cc1nscc1C(=O)OCc1nc2ccc(F)cc2o1`, the “% Inhibition” value is reported as -3% and the Z score was found to be 0.53.
